To fix the notation:
B1: Caulobacter ParB omega fusion; a variant is named by its letters at X, in order, B8GW30 (parent)
chain: MESVVVGEPGMSEGRRGLGRGLSALLGEVDAAPAQAPGEQLGGSREAPIEILQRNPDQPRRTFREEDLEDLSNSIREKGVLQPILVRPSPDTAGEYQIVAGERAWRAAQRAGLKTVPIMVRELDDLAVLEIGIIENVQRADLNVLEEALSYKVLMEKFERTQENIAQTIGKSXSHVANXMRLLXLPDEVQSYLVSGELTAXHARAIAAAADPVALAKQIIEGGLSVRETEALARKAPNLSAGKSKGGRPPRVKDTDTQALESDLSSVLGLDVSIDHRGSTGTLTITYATLEQLDDLCNRLTRGI

Data on 76 variants can be found in a collection of fitness landscapes (doi:10.1016/j.celrep.2020.107928).

In all, about 81,000 sequences were measured (“one-hybrid fitness for binding parS DNA”: median about -0.17, highest 2% from about 0.51 on). The list shows a part of the results.

Variants of B1 are the subject of the assay. Briefly: one-hybrid fitness for binding parS DNA (scaled: cognate 1, non-cognate 0); higher = stronger binding. The conditions noted are these: with parS DNA site. In short, it runs like this: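 Bacterial one-hybrid selection in E. coli USO rpoZ- hisB- pyrF- with a HIS3 reporter carrying the site 19 bp from the promoter, screening Caulobacter ParB libraries with four specificity codons randomised (NNS). Cells grew 48 hours at 37°C on M9-minus-histidine plus 0.1 mM IPTG and 5 mM 3-AT. Plasmids before and after selection were Illumina-sequenced, three replicate libraries pooled, and variants under 10 reads dropped. Fitness is the log change in variant-to-wild-type read ratio, rescaled to cognate 1, non-cognate 0.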
In the case of PWPG, the “one-hybrid fitness for binding parS DNA” value was not above 0.2.

In the case of VSFG, the “one-hybrid fitness for binding parS DNA” value was not above 0.2. Turning to TAAA, the “one-hybrid fitness for binding parS DNA” value was not above 0.2. Regarding RNNM, the “one-hybrid fitness for binding parS DNA” value amounted to 0.28. To VAAQ belongs not above 0.2. As to QPPR, the “one-hybrid fitness for binding parS DNA” value is not above 0.2. On to WFTL, for which the “one-hybrid fitness for binding parS DNA” value is not above 0.2. NHVD: the “one-hybrid fitness for binding parS DNA” value was not above 0.2. Regarding FNKG, the “one-hybrid fitness for binding parS DNA” value is not above 0.2. Turning to YARY, the “one-hybrid fitness for binding parS DNA” value was not above 0.2. Consider TEKM, for which the “one-hybrid fitness for binding parS DNA” value is not above 0.2.

As to VELF, the “one-hybrid fitness for binding parS DNA” value was not above 0.2.

Regarding VKMG, the “one-hybrid fitness for binding parS DNA” value was not above 0.2. To QFES belongs not above 0.2. For the variant NMYC, the “one-hybrid fitness for binding parS DNA” value was not above 0.2. As to GINW, the “one-hybrid fitness for binding parS DNA” value was not above 0.2.

As for DYTF, the “one-hybrid fitness for binding parS DNA” value is not above 0.2. As for DYQG, the figure is not above 0.2. As to DLLR, the “one-hybrid fitness for binding parS DNA” value is not above 0.2. KWDD: the “one-hybrid fitness for binding parS DNA” value is not above 0.2. To VGGS belongs not above 0.2.

In the case of MQKG, the “one-hybrid fitness for binding parS DNA” value was not above 0.2. To LLLC belongs not above 0.2; to LKKG, not above 0.2; to YLGM, not above 0.2.

AIEY: the “one-hybrid fitness for binding parS DNA” value was 0.322. As for AAFE, the figure is not above 0.2; as for PKRC, not above 0.2; as for HTLN, not above 0.2. As to KYRY, the “one-hybrid fitness for binding parS DNA” value is not above 0.2. As for REHS, the “one-hybrid fitness for binding parS DNA” value is not above 0.2. Turning to WTYW, the “one-hybrid fitness for binding parS DNA” value is not above 0.2.

For the variant MMGG, the “one-hybrid fitness for binding parS DNA” value was not above 0.2. With TLIA, the “one-hybrid fitness for binding parS DNA” value was not above 0.2.

Consider RYTQ, for which the “one-hybrid fitness for binding parS DNA” value was not above 0.2. In the case of ERAL, the “one-hybrid fitness for binding parS DNA” value is not above 0.2. To AIKG belongs not above 0.2; to TKKN, not above 0.2; to NHRS, not above 0.2. With TDVS, the “one-hybrid fitness for binding parS DNA” value was not above 0.2. Turning to PTAR, the “one-hybrid fitness for binding parS DNA” value was not above 0.2. As to VRLI, the “one-hybrid fitness for binding parS DNA” value is not above 0.2. Regarding VDFR, the “one-hybrid fitness for binding parS DNA” value is not above 0.2.

Regarding PATA, the “one-hybrid fitness for binding parS DNA” value was not above 0.2. In the case of LTKT, the “one-hybrid fitness for binding parS DNA” value was not above 0.2. PSPW: the “one-hybrid fitness for binding parS DNA” value is not above 0.2. For GFRV, the “one-hybrid fitness for binding parS DNA” value was not above 0.2. Turning to MARS, the “one-hybrid fitness for binding parS DNA” value was not above 0.2.

As to QKHR, the “one-hybrid fitness for binding parS DNA” value was not above 0.2. For the variant RSYG, the “one-hybrid fitness for binding parS DNA” value came out at 0.991. As for GTMR, the figure is not above 0.2; as for KYVS, not above 0.2. On to PSQG, for which the “one-hybrid fitness for binding parS DNA” value was not above 0.2. With THRC, the “one-hybrid fitness for binding parS DNA” value was not above 0.2.

With INQE, the “one-hybrid fitness for binding parS DNA” value is not above 0.2.

For the variant QKEA, the “one-hybrid fitness for binding parS DNA” value is not above 0.2.

On to SWRC, for which the “one-hybrid fitness for binding parS DNA” value is not above 0.2. For NTFW, the “one-hybrid fitness for binding parS DNA” value is not above 0.2.

For the variant RDPF, the “one-hybrid fitness for binding parS DNA” value was not above 0.2.

For EPNK, the “one-hybrid fitness for binding parS DNA” value is not above 0.2. In the case of RGPT, the “one-hybrid fitness for binding parS DNA” value was not above 0.2.

Take RVPL: the “one-hybrid fitness for binding parS DNA” value was not above 0.2. LYKV: the “one-hybrid fitness for binding parS DNA” value was not above 0.2.

Turning to SPFL, the “one-hybrid fitness for binding parS DNA” value was not above 0.2. Take ARAD: the “one-hybrid fitness for binding parS DNA” value was not above 0.2.

In the case of DGVD, the “one-hybrid fitness for binding parS DNA” value is not above 0.2. Regarding WFMG, the “one-hybrid fitness for binding parS DNA” value was not above 0.2. Consider PCAA, for which the “one-hybrid fitness for binding parS DNA” value is not above 0.2.

With NMFC, the “one-hybrid fitness for binding parS DNA” value is not above 0.2.

Consider VCMT, for which the “one-hybrid fitness for binding parS DNA” value is not above 0.2. As for WTAC, the figure is not above 0.2; as for WRHG, not above 0.2.

As for DVRF, the “one-hybrid fitness for binding parS DNA” value was not above 0.2. For the variant AWFS, the “one-hybrid fitness for binding parS DNA” value is not above 0.2. Regarding QDTS, the “one-hybrid fitness for binding parS DNA” value is not above 0.2. As for GSRL, the figure is not above 0.2.
